{"source": "ChEMBL document CHEMBL4888484", "about": "“Replenishing the malaria drug discovery pipeline: Screening and hit evaluation of the MMV Hit Generation Library 1 (HGL1) against asexual blood stage Plasmodium falciparum ,using a nano luciferase reporter read-out” (2022)", "note": "The whole screen tested about 150,000 compounds, of which about 540 (0.36%) showed an effect of 50% or more. This is one part of the list."}
{"tested_on": "Plasmodium falciparum", "assay": "Primary screen in NF54 nanoGlo assay, in single point, at 2uM, 72h; a lower Z score goes with more inhibition", "format": "functional, Erythrocyte", "settings": "timepoint 72 hour", "units": {"% Inhibition": "%"}}
{"compound": "COc1ccc([C@@H](NC(=O)c2cnn3ncccc23)C(F)(F)F)cc1F", "% Inhibition": -13, "Z score": 1.88}
{"compound": "Cc1cc(C)n(-c2ccnc(N3CCN(C4CCCCC4)CC3)n2)n1", "% Inhibition": -16, "Z score": 1.73}
{"compound": "CC[C@H](C)[C@@H]1NC(=O)N(Cc2ccccc2Cn2cccn2)C1=O", "% Inhibition": -4, "Z score": 0.67}
{"compound": "CN(C)C1(CN[C@@H](c2ccccc2)c2ccc(F)cn2)CCOCC1", "% Inhibition": -2, "Z score": 0.29}
{"compound": "O=C1NCCCCCN(C(=O)NC2CCCCC2)[C@@H]2C[C@@H](C(=O)N3CCc4ccccc4C3)C[C@H]12", "% Inhibition": 5, "Z score": -0.68}
{"compound": "CS(=O)(=O)c1cccc(C(=O)N2CCC(Oc3nc4c(F)cccc4s3)CC2)c1", "% Inhibition": -14, "Z score": 2.03}
{"compound": "CCCc1nn(C)c(CCC)c1C(=O)NCC(C)C", "% Inhibition": -8, "Z score": 1.3}
{"compound": "Cc1noc(-c2ccc(OC(F)(F)F)cc2)c1C(=O)NCc1cccc(Cl)c1", "% Inhibition": -6, "Z score": 0.65}
{"compound": "Brc1cc(-c2noc([C@H]3CCCO3)n2)c2ncnn2c1", "% Inhibition": -9, "Z score": 1.62}
{"compound": "CC(C)c1nc(NC(=O)COC2CCCC2)n(C)n1", "% Inhibition": -5, "Z score": 0.64}
{"compound": "Cc1nc(C2(C)CC2)n(Cc2ccccc2Cl)n1", "% Inhibition": -12, "Z score": 2.21}
{"compound": "CCN(Cc1noc(C2CCC2)n1)Cc1nccn1C", "% Inhibition": 8, "Z score": -1.78}
{"compound": "O=C(NCc1cccc(C(F)(F)F)c1)c1nc[nH]c1C(=O)NC1CC1", "% Inhibition": 14, "Z score": -1.58}
{"compound": "Cc1noc(C)c1CN1CC[C@H](NC(=O)c2cc3ccccc3[nH]2)C1", "% Inhibition": -14, "Z score": 2.5}
{"compound": "Cc1c(CNC(=O)CNC(N)=O)oc2ccccc12", "% Inhibition": 1, "Z score": -0.28}
{"compound": "CC(C)C[C@H](CCO)CNC(=O)CS(=O)(=O)Cc1ccc(Br)cc1", "% Inhibition": -1, "Z score": 0.14}
{"compound": "COc1ccccc1[C@H]1C[C@@H](C)CCN1Cc1cnc2cnccn12", "% Inhibition": -6, "Z score": 0.76}
{"compound": "O=C1NCCC[C@@H]1Nc1nccc(C(F)(F)F)n1", "% Inhibition": -2, "Z score": 0.43}
{"compound": "Nc1cc(O)nc(CCNC(=O)c2ccc3nc(-c4ccc(F)cc4)cn3c2)n1", "% Inhibition": -10, "Z score": 1.19}
{"compound": "Cc1nc(-c2cccs2)sc1CNS(=O)(=O)N(C)C", "% Inhibition": -3, "Z score": 0.52}
{"compound": "CC1=Nc2ccccc2C12CCN(C(=O)Nc1cncc(F)c1)CC2", "% Inhibition": 11, "Z score": -1.44}
{"compound": "C[C@@H]1NC(=O)N(c2ccccc2NC(=O)CCOc2ccccc2)C1=O", "% Inhibition": 5, "Z score": -0.67}
{"compound": "C=C(C)COc1cccc(C(=O)N2CC[C@H](NC(C)=O)C2)c1", "% Inhibition": -4, "Z score": 0.57}
{"compound": "C[C@@H](CCc1ccc(F)c(F)c1)NC(=O)C(C)(C)O", "% Inhibition": 4, "Z score": -0.49}
{"compound": "CC(C)c1nnc(NC(=O)C2Oc3ccccc3C2C)[nH]1", "note": "(stereo not drawn)", "% Inhibition": -7, "Z score": 0.99}
{"compound": "COc1cn(CC(=O)NCc2ccc3c(c2)OCO3)c(CN2CCCCC2)cc1=O", "% Inhibition": -6, "Z score": 1.05}
{"compound": "COc1ccc2nc(NC(=O)[C@H]3CCCN(C(=O)C(C)C)C3)sc2c1", "% Inhibition": -13, "Z score": 1.89}
{"compound": "O=C(Cn1c(C2CCCCC2)nc2ccccc21)Nc1nnc[nH]1", "% Inhibition": -1, "Z score": 0.21}
{"compound": "OC(CN1CCCC1C1CCCCC1)Cn1cccn1", "note": "(stereo not drawn)", "% Inhibition": 1, "Z score": -0.1}
{"compound": "O=C1CC[C@]2(CNC(=O)c3ccncc3)CCCC=C2N1", "% Inhibition": 8, "Z score": -1.2}
{"compound": "Cc1c(C)[n+]([O-])c([C@@H](c2ccc(O)cc2)C2C(=O)OC(C)(C)OC2=O)n1C", "% Inhibition": -11, "Z score": 1.46}
{"compound": "COCCNC(=O)C(=O)NCc1ccc(C)cc1", "% Inhibition": -5, "Z score": 0.71}
{"compound": "CC(C)(C)c1cc([C@H]2CC(O)=Nc3c2c(=O)[nH]n3C2CCOCC2)cc(C(C)(C)C)c1O", "% Inhibition": -11, "Z score": 1.22}
{"compound": "CCC[C@H](C)C(=O)Nc1ccc(C)cc1", "% Inhibition": -8, "Z score": 1.05}
{"compound": "CCCOC1(CNC(=O)c2cnn(C)c2)CCCCC1", "% Inhibition": 5, "Z score": -0.72}
{"compound": "CC(C)n1ccc(-c2nc(CC(N)=O)nn2CC(F)(F)F)n1", "% Inhibition": -14, "Z score": 1.4}
{"compound": "O=C(NCc1ncccn1)NC[C@H]1C[C@@H]1C1CCCCC1", "% Inhibition": -6, "Z score": 0.92}
{"compound": "CN1CCO[C@@H]2CN(Cc3ccccc3OC3CC3)C[C@@H]21", "% Inhibition": 8, "Z score": -1.02}
{"compound": "Cc1ccccc1CC(C)(C)NC(=O)[C@H]1CC12CCS(=O)(=O)CC2", "% Inhibition": 1, "Z score": -0.07}
{"compound": "CC[C@H]1CN(S(=O)(=O)c2ccc(OC)cc2)CC[C@H]1CC(=O)N(C)CC#N", "% Inhibition": -15, "Z score": 2.37}
{"compound": "Cc1cc(C)n2ncc(CN(CCO)Cc3ccc(F)cc3)c2n1", "% Inhibition": 3, "Z score": -0.55}
{"compound": "CCCn1ccnc1CCCN(C)C(=O)C1CC1c1ccccc1C(F)(F)F", "note": "(stereo not drawn)", "% Inhibition": 5, "Z score": -0.58}
{"compound": "Cc1csc(N(CC(F)(F)F)C(=O)c2ccc(C)o2)n1", "% Inhibition": 1, "Z score": -0.15}
{"compound": "COC(=O)[C@@H]1Cc2ccc(O)cc2CN1C(=O)CN(C)C(C)=O", "% Inhibition": -10, "Z score": 2.02}
{"compound": "C[C@@H](c1ccc(Cl)c(Cl)c1)N(C)Cc1nc(C(=O)O)co1", "% Inhibition": -13, "Z score": 1.39}
{"compound": "Fc1ccc2nc([C@H]3CCCN(Cc4ncccc4Cl)C3)oc2c1", "% Inhibition": 7, "Z score": -1.3}
{"compound": "CCN(CCS(N)(=O)=O)[C@@H](C)c1cccc(OC)c1", "% Inhibition": -6, "Z score": 0.56}
{"compound": "Cc1nc2c(-c3ccncc3)nsc2c(=O)n1CC(=O)Nc1ccc2c(c1)OCO2", "% Inhibition": 2, "Z score": -0.27}
{"compound": "CCC1CN(CC(C)(C)O)C(CC)CN1CC(=O)Nc1cc(OC)cc(OC)c1", "note": "(stereo not drawn)", "% Inhibition": -14, "Z score": 1.29}
{"compound": "NC(=O)C1CCCC1NC(=O)C1COc2ccccc21", "note": "(stereo not drawn)", "% Inhibition": -10, "Z score": 1.37}
{"compound": "CCCN1C[C@@H](Nc2cc(-c3ccccc3F)nc3ccnn23)CC1=O", "% Inhibition": -11, "Z score": 1.34}
{"compound": "COc1ccc(C2CN(Cc3cc(C)c(C)o3)CC2CN(Cc2ccc(F)cc2)C(C)=O)cc1", "note": "(stereo not drawn)", "% Inhibition": 2, "Z score": -0.2}
{"compound": "COc1ccc(-c2n[nH]c3c2cnc2ccc(F)cc23)cc1", "% Inhibition": -11, "Z score": 1.01}
{"compound": "CC(C)CN(CC(N)=O)CC1=CCCOC1", "% Inhibition": -2, "Z score": 0.27}
